# Measured values published in the supplement of paper PMC12217912.
# Some of the results follow. Sequences were assembled here from the parent chain. Inactive controls read about 0.05.
# B1: TEV protease; numbered along this chain (parent)
# chain: MGESLFKGPRDYNPISSSICHLTNESDGHTTSLYGIGFGPFIITNKHLFRRNNGTLVVQSLHGVFKVKDTTTLQQHLVDGRDMIIIRMPKDFPPFPQKLKFREPQREERICLVTTNFQTKSMSSMVSDTSCTFPSGDGIFWKHWIQTKDGQCGSPLVSTRDGFIVGIHSASNFTNTNNYFTSVPKNFMELLTNQEAQQWVSGWRLNADSVLWGGHKVFMVKPEEPFQPVKEATQL
# Variants of: B1
# Assay: raw area under fraction-flipped curve 0-4 h after induction (AUC4h, not background-subtracted), DNA-recorder readout of cleavage of the substrate (dimensionless); higher = more cleavage of the substrate by the protease variant
# Conditions: temperature: 34 °C; time window: 0-4 h after rhamnose induction
# Method: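 In vivo DNA recorder in E. coli TOP10(DE3) ΔrhaA at 34 °C. Each TEVp single-site mutant (parent TEVp 0) is paired with a single-site variant of the 7-mer TEVs (canonical ENLYFQ|S). The substrate sits between flexible linkers in a Bxb1-sfGFP-TEVs-SsrA fusion, so cleavage stabilises Bxb1 and speeds flipping of a recombination array, read by NGS. The value is the raw area under the fraction-flipped curve over 0-4 h after rhamnose induction (AUC4h), with ≥20 reads per time point. It is not background-subtracted; inactive controls average about 0.047.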
# 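Also: Bxb1 expression induced with 0.2% (w/v) L-rhamnose at OD600 near 0.5, cultures sampled hourly, flipped fraction per protease–substrate barcode pair counted by paired-end Illumina sequencing.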
Variant,area with substrate ENLYFAS,area with substrate ENLYFCS,area with substrate ENLYFDS,area with substrate ENLYFES,area with substrate ENLYFFS,area with substrate ENLYFHS,area with substrate ENLYFIS,area with substrate ENLYFKS,area with substrate ENLYFMS,area with substrate ENLYFPS,area with substrate ENLYFRS,area with substrate ENLYFSS,area with substrate ENLYFTS,area with substrate ENLYFWS,area with substrate ENLYFYS,area with substrate ENLYFNS,area with substrate ENLYFVS,area with substrate ENLYFLS,area with substrate ENLYFGS
MGESLFKGPRDYNPISSSICHLTNESDGHTTSLYGIGFGPFIITNKHLFRRNNGTLVVQSLHGVFKVKDTTTLQQHLVDGRDMIIIRMPKDFPPFPQTLKFREPQREERICLVTTNFQTKSMSSMVSDTSCTFPSGDGIFWKHWIQTKDGQCGSPLVSTRDGFIVGIHSASNFTNTNNYFTSVPKNFMELLTNQEAQQWVSGWRLNADSVLWGGHKVFMVKPEEPFQPVKEATQL [K98T],0.0891,0.0604,0.056,0.0711,0.0389,0.0682,0.0581,0.0678,0.0602,0.0552,0.0658,0.0646,0.0827,0.0499,0.0742,,,,
MGESLFKGPRDYNPISSSICHLTNESDGHTTSLYGIGFGPFIITNKHLFRRNNGTLVVQSLHGVFKVKDTTTLQQHLVDGRDMIIIRMPKDFPPFPQGLKFREPQREERICLVTTNFQTKSMSSMVSDTSCTFPSGDGIFWKHWIQTKDGQCGSPLVSTRDGFIVGIHSASNFTNTNNYFTSVPKNFMELLTNQEAQQWVSGWRLNADSVLWGGHKVFMVKPEEPFQPVKEATQL [K98G],0.0689,0.0633,0.0585,0.0595,0.0782,0.0498,0.0598,0.0426,0.0645,0.0667,,0.0557,0.056,0.0536,0.0569,0.0556,0.0744,,
MGESLFKGPRDYNPISSSICHLTNESDGHTTSLYGIGFGPFIITNKHLFRRNNGTLVVQSLHGVFKVKDTTTLQQHLVDGRDMIIIRMHKDFPPFPQKLKFREPQREERICLVTTNFQTKSMSSMVSDTSCTFPSGDGIFWKHWIQTKDGQCGSPLVSTRDGFIVGIHSASNFTNTNNYFTSVPKNFMELLTNQEAQQWVSGWRLNADSVLWGGHKVFMVKPEEPFQPVKEATQL [P89H],0.0617,,,,0.059,,,0.0531,0.0611,0.0524,,,0.0614,,0.0449,,0.0691,,
MGESLFKGPRDYNPISSSICHLTNESDGHTTSLYGIGFGPFIITNKHLFRRNNGTLVVQSLHGVFKVKDTTTLQQHLVDGRDMIIIRMPKDFAPFPQKLKFREPQREERICLVTTNFQTKSMSSMVSDTSCTFPSGDGIFWKHWIQTKDGQCGSPLVSTRDGFIVGIHSASNFTNTNNYFTSVPKNFMELLTNQEAQQWVSGWRLNADSVLWGGHKVFMVKPEEPFQPVKEATQL [P93A],0.0516,,,0.102,0.061,0.0679,0.0606,0.0637,0.0715,0.0522,,,0.0388,0.0398,0.0555,0.063,0.0568,0.0578,
MGESLFKGPRDYNPISSSICHLTNESDGHTTSLYGIGFGPFIITNKHLFRRNNGTLVVQSLHGVFKVKDTTTLQQHLVDGRDMIIIRMPKFFPPFPQKLKFREPQREERICLVTTNFQTKSMSSMVSDTSCTFPSGDGIFWKHWIQTKDGQCGSPLVSTRDGFIVGIHSASNFTNTNNYFTSVPKNFMELLTNQEAQQWVSGWRLNADSVLWGGHKVFMVKPEEPFQPVKEATQL [D91F],0,,0.0506,,0.0641,0.0616,0.0548,0.0668,0.0706,0.064,,,0.0644,0.0612,0.0545,,,0.0503,
MGESLFKGPRDYNPISSSICHLTNESDGHTTSLYGIGFGPFIITNKHLFRRNNGTLVVQSLHGVFKVKDTTTLQQHLVDGRDMIIIRMPKWFPPFPQKLKFREPQREERICLVTTNFQTKSMSSMVSDTSCTFPSGDGIFWKHWIQTKDGQCGSPLVSTRDGFIVGIHSASNFTNTNNYFTSVPKNFMELLTNQEAQQWVSGWRLNADSVLWGGHKVFMVKPEEPFQPVKEATQL [D91W],0.0679,0.0682,0.0553,,0.0743,0.0432,0.0611,,0.0564,0.0553,0.0621,,0.0724,0.051,0.0683,0.0644,,,0.0571
MGESLFKGPRDYNPISSSICHLTNESDGHTTSLYGIGFGPFIITNKHLFRRNNGTLVVQSLHGVFKVKDTTTLQQHLVDGRDMIIIRMPKDEPPFPQKLKFREPQREERICLVTTNFQTKSMSSMVSDTSCTFPSGDGIFWKHWIQTKDGQCGSPLVSTRDGFIVGIHSASNFTNTNNYFTSVPKNFMELLTNQEAQQWVSGWRLNADSVLWGGHKVFMVKPEEPFQPVKEATQL [F92E],0.0685,0.0498,0.0183,,,0.0559,0.0535,,0.0531,0.0589,,0.0517,0.0496,0.062,0.0487,0.0595,,0.0584,
MGESLFKGPRDYNPISSSICHLTNESDGHTTSLYGIGFGPFIITNKHLFRRNNGTLVVQSLHGVFKVKDTTTLQQHLVDGRDMIIIRMPKDYPPFPQKLKFREPQREERICLVTTNFQTKSMSSMVSDTSCTFPSGDGIFWKHWIQTKDGQCGSPLVSTRDGFIVGIHSASNFTNTNNYFTSVPKNFMELLTNQEAQQWVSGWRLNADSVLWGGHKVFMVKPEEPFQPVKEATQL [F92Y],0.0654,0.056,,0.0667,0.0571,0.0428,0.0481,0.0612,0.0616,0.0596,0.0636,0.0325,0.0651,,,0.0665,0.0508,0.054,
MGESLFKGPRDYNPISSSICHLTNESDGHTTSLYGIGFGPFIITNKHLFRRNNGTLVVQSLHGVFKVKDTTTLQQHLVDGRDMIIIRMPKDFPPFPQKLFFREPQREERICLVTTNFQTKSMSSMVSDTSCTFPSGDGIFWKHWIQTKDGQCGSPLVSTRDGFIVGIHSASNFTNTNNYFTSVPKNFMELLTNQEAQQWVSGWRLNADSVLWGGHKVFMVKPEEPFQPVKEATQL [K100F],0.0682,0.0498,,0.0782,0.0775,0.0523,0.06,0.0829,,0.0597,0.0602,0.0409,0.0541,0.0571,,,,,0.0582
